Screen size: about 310,000 compounds; about 14,000 (4.5%) showed an effect of 50% or more. Effects have a minus sign here. This is one part of the list.
Each molecule was assayed against human ether-à-go-go-related gene (hERG) potassium channel (human, UniProt Q12809) (assay: primary screen, population patch clamp on CHO cells stably expressing hERG).
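Note: peak tail current of the secondary pulse compared with the same well before compound.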

human ether-à-go-go-related gene (hERG) potassium channel, sequence (Q12809 whole entry, looked up): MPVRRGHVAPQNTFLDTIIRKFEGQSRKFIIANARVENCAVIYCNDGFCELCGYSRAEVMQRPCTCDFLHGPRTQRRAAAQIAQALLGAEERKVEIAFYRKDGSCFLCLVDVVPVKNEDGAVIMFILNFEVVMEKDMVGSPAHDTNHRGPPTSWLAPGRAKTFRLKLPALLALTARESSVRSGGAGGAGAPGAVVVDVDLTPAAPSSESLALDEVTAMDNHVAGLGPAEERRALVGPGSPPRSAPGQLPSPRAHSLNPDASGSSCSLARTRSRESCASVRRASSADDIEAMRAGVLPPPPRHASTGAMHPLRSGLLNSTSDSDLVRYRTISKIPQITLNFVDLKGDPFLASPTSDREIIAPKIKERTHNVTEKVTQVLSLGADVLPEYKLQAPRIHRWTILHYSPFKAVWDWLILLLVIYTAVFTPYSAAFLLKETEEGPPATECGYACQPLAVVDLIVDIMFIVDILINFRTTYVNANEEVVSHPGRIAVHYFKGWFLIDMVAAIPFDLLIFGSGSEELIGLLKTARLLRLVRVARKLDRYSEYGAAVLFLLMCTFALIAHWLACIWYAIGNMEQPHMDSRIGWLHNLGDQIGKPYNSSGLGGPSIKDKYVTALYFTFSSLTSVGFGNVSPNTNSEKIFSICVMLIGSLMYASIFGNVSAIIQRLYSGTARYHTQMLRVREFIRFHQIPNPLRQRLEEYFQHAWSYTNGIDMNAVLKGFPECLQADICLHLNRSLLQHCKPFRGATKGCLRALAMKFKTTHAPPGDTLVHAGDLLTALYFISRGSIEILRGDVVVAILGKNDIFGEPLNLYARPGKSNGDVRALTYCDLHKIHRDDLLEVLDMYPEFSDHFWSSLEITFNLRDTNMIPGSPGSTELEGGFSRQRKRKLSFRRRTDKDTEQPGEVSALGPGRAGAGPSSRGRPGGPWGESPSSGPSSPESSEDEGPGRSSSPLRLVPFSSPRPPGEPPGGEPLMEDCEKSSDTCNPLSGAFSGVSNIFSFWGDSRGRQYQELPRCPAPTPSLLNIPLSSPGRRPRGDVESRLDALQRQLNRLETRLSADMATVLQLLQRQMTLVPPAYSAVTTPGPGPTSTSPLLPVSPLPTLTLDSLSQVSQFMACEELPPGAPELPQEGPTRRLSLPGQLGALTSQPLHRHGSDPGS

| Compound | hERG current change (%, negative = inhibition) at 10uM [%] |
| --- | --- |
| COCCN1C(=O)c2cc(C(=O)Nc3ccc(OC)c(OC)c3)ccc2C1Nc1ccc(OC)c(OC)c1 (stereo not drawn) | 5.08 |
| CCOC(=O)c1c(NC(=O)CN2C(=O)NC3(CCCCC3)C2=O)sc(C)c1-c1ccc(C)cc1 | 5.69 |
| CS(=O)(=O)c1nc(S(=O)(=O)c2ccc(Cl)cc2)c(N2CCCCC2)s1 | 16.4 |
| CCOC(=O)c1ccc(NC(=S)N2CCN(CCN=CC3=C(O)CC(C)(C)CC3=O)CC2)cc1 | -40.8 |
| Cn1c(SCc2cccc(C(F)(F)F)c2)nnc1-c1ccco1 | -14.1 |
| CNc1nc(Oc2ccc(C(=O)OC)cc2)nc(SC)n1 | 5.47 |
| CCOC(=O)C(C(=O)OCC)C1CS(=O)(=O)CC1C(C(=O)OCC)C(=O)OCC (stereo not drawn) | 7.53 |
| CCCCc1nc(NCCNC(=O)c2ccccc2)c(C#N)c2c1CSC(C)(C)C2 | -19.8 |
| O=c1[nH]cnc2c1c(-c1ccccc1)cn2-c1ccccc1 | 12.1 |
| O=C(CN1CCCC1)Nc1nc(-c2ccc3c(c2)CCN3C(=O)c2ccccc2F)cs1 | 3.76 |
| Cc1ccc(-n2c(SCC(=O)NCCN3C(=O)CSC3=O)nnc2-c2ccccc2)cc1C | 1.18 |
| COCC1CCCN(C(=O)c2cc(COc3ccc(C(C)=O)cc3)on2)C1 (stereo not drawn) | 12.7 |
| Cc1cc(C)n(-c2ccc(Cl)c(C(=O)O)n2)n1 | -19.5 |
| CC(=O)Nc1ccc(NC(=O)C(C)OC(=O)/C=C/c2ccc3c(c2)OCO3)cc1 (stereo not drawn) | -24.3 |
| O=C(COC(=O)C1CC1)Nc1ncc(Cl)cc1Cl | 8.23 |
| C/C(O)=C(\N=Nc1cc(C)ccc1O)C(N)=O | -3.44 |
| N#C/C(=C\c1ccc[nH]1)C(=O)Nc1ccccc1F | -3.7 |
| CC(NC(=O)c1ccc(OC2CCN(C(=O)c3cccnc3)CC2)cc1)C1CC1 (stereo not drawn) | 3.32 |
| COC(=O)C1=C(c2ccc(S(C)(=O)=O)cc2)C[C@@H]2CC[C@H]1N2C(=O)NCCNC(C)=O | 14.6 |
| Cc1ccc(-n2ncc(C(=O)Nc3ccc(Cl)cc3)c2C2CCNCC2)cc1C.Cl | -71.7 |
| COc1ccc(-c2nnnn2CCc2ccccc2)cc1 | -23.3 |
| CC1CCN(c2nc(-c3ccccc3)c(C#N)c(=O)[nH]2)CC1 | 23.9 |
| CC(=O)c1ccc(NC(=O)CSCCO)cc1 | 10.5 |
| O=c1c(C=NCCCn2ccnc2)c(-c2ccccc2)[nH]n1-c1nc2ccccc2s1 | -71.4 |

From paper PMC4336329 (PLoS ONE, 2015)
